# In PMC4336329 (PLoS ONE, 2015):
# Hit rate of the full screen: of about 310,000 compounds, about 14,000 (4.5%) showed an effect of 50% or more. The effect is printed as a negative number. The list shows a part of the results. Where a SMILES comes first, the peptide text is derived from it. The star is where a group is joined. Cbz = O=C(OCc1ccccc1)*
# Target: human ether-à-go-go-related gene (hERG) potassium channel (human, UniProt Q12809)
# Assay: primary screen, population patch clamp on CHO cells stably expressing hERG
# 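Further: peak tail current of the secondary pulse compared with the same well before compound.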
# Sequence of human ether-à-go-go-related gene (hERG) potassium channel (Q12809 whole entry, looked up): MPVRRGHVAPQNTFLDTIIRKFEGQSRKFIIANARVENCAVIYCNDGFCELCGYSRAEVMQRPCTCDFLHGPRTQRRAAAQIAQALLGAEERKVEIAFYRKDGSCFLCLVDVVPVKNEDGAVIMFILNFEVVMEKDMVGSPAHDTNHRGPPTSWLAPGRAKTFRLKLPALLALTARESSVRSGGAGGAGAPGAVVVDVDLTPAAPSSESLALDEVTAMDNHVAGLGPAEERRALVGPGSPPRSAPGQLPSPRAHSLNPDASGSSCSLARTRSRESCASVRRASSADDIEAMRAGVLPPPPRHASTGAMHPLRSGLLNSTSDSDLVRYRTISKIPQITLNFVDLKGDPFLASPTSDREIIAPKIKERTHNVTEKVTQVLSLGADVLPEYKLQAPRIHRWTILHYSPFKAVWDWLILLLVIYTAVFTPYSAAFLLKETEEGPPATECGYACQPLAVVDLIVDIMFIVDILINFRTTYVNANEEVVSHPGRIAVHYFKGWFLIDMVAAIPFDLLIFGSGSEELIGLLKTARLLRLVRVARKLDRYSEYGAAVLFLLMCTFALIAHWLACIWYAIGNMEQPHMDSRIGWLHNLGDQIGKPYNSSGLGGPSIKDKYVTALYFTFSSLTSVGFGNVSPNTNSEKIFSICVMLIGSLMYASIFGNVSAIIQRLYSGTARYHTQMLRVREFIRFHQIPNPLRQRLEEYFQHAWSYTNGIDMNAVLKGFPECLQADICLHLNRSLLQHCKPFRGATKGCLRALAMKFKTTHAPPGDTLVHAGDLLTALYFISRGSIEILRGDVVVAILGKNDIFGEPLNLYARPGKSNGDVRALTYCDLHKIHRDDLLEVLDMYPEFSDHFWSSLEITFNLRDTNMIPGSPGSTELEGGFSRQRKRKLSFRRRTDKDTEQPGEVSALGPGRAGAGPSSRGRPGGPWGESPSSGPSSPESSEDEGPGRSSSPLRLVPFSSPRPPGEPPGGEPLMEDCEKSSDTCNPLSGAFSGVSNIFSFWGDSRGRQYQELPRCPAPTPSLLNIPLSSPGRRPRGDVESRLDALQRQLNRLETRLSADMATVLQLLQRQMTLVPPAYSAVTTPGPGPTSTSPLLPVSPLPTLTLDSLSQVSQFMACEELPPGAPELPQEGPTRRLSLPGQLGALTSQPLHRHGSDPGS
row,Structure (SMILES),"hERG current change (%, negative = inhibition) at 10uM"
1,Cc1ccc2nc(N3C(=O)C(O)=C(C(=O)c4ccc(C)o4)C3c3cccc(O)c3)sc2c1 (stereo not shown),21.9%
2,O=C(CNCc1ccccn1)Nc1cc(C(F)(F)F)ccc1N1CCOCC1.O=C(O)C(=O)O,-57.5%
3,Cc1ccc(-c2nc3ccc(Cl)cc3n2OC(=O)N(C)C)cc1,13.4%
4,CC(C)OCCCn1c(=NC(=O)c2cccs2)c(C#N)cc2c(=O)n3ccccc3nc21,-77.6%
5,Cc1cccc(NC(=O)CSc2nnc(C)n2Cc2ccccc2)c1,-29%
6,CC(=O)Nc1ccc2nc(NC(=O)c3ccco3)sc2c1,1.09%
7,Cc1ccccc1N(C(=O)c1csnn1)C(C(=O)NC(C)(C)C)c1cccs1 (stereo not shown),-0.871%
8,Cc1ccc(NS(=O)(=O)c2ccc3c(c2)oc(=O)n3C)cc1,19.6%
9,CCOC(=O)c1cnc2nc(SC)nn2c1N,-0.21%
10,O=c1[nH]ncc(N2CCN(Cc3ccccc3)CC2)c1Cl,-14.4%
11,CC(/C=C/c1ccco1)=N/NC(=O)c1ccc(C)nc1,18.6%
12,O=C(COCc1cc(-c2ccc3c(c2)OCO3)on1)N1CCN(c2cccc(C(F)(F)F)c2)CC1,9.73%
13,O=[N+]([O-])c1ccc(Nc2ccc(F)cc2)nc1,0.417%
14,COc1ccc(CN(C)C(=O)c2oc3ccccc3c2CSC)cc1F,14.4%
15,CCN(CC)S(=O)(=O)N1CCC(C(=O)NC2CCCc3ccccc32)CC1 (stereo not shown),-8%
16,Cc1cc(C)c(S(=O)(=O)c2ccccc2)c(OC(=O)c2ccc(Cl)cc2Cl)n1,-12.3%
17,CN(CCOC(=O)c1ccccc1)Cc1ccccc1.Cl,-10.2%
18,O=C(Cn1c(-c2cscn2)nc2ccccc21)Nc1ccc(Cl)cc1,-7.59%
19,CCn1c(CNC(=O)COc2ccc(C(C)C)cc2)nnc1SCC(=O)Nc1cc(F)ccc1C,-65.7%
20,COc1ccc(N(CC(=O)NC2CCCC2)C(=O)Cn2nnc(-c3ccc(C)cc3)n2)cc1OC,-3.68%
21,CCCN1CCN(CCCNC(=O)Cn2nc(-c3ccccc3)ccc2=O)CC1,-22.2%
22,Cc1ccc(CNC(=O)CCC(=O)c2cccs2)cc1,-12.5%

row,Structure (SMILES),"hERG current change (%, negative = inhibition) at 10uM"
1,O=C(CN1C(=O)NC(Cc2c[nH]c3ccccc23)C1=O)Nc1cccc(S(=O)(=O)N2CCOCC2)c1 (stereo not shown),5.66%
2,O=c1c2c(nc3cc(-c4cccc(Cl)c4)[nH]n13)CCC2,-4.13%
3,CCOC(=O)C1C(c2ccc(O)c(OCC)c2)NC(=S)NC1(O)C(F)(F)F (stereo not shown),-12.5%
4,Fc1ccccc1NC(=S)NCc1ccc(Cl)cc1,16.3%
5,O=C(N/N=C/c1ccc(O)c(Br)c1)c1cc2c(ccc3ccccc32)o1,13.1%
6,Cc1nn(-c2ccccc2)nc1C(=O)NNC(=O)c1cccc2ccccc12,-16.5%
7,O=C1C=C(c2ccc(O)cc2)C[C@@H](c2ccc(Cl)cc2)C1,23.8%
8,CCOc1ccc(S(=O)(=O)N2CCN(C(=O)c3cc(-c4ccccc4)nn3-c3ccccc3)CC2)cc1,-11%
9,CCn1c(SCc2cccc(F)c2)nnc1-c1cccnc1,-0.291%
10,COc1ccc2[nH]cc(S(=O)(=O)c3ccc(C)cc3)c2c1,-3.08%
11,COc1ccc(NC(=O)c2ccccc2S(=O)c2ccccc2C#N)cc1 (stereo not shown),-4.48%
12,C=CCn1c(SCC(=O)Nc2ccc(F)cc2)nc2cc(C(=O)O)ccc2c1=O,18.8%
13,CC1=NN(C(N)=S)C(=O)C1N=Nc1cc(Cl)ccc1Cl (stereo not shown),28.1%
14,CC1=C(C#N)C2C(/C1=N/O)C2(C)C (stereo not shown),18.7%
15,COc1cn(-c2ccccc2)nc1C(=O)Nc1ccccc1,2.77%
16,CN(C1(C)CCS(=O)(=O)C1)S(=O)(=O)c1ccc2ccccc2c1 (stereo not shown),0.167%
17,COc1cc(SC)ccc1C(=O)N1CCN(S(=O)(=O)/C=C/c2ccccc2)CC1,-56.5%
18,C/C(=N\NC(=O)c1ccc(Br)o1)c1cc2c(cc1NC(=O)CCC(=O)O)OCO2,10.5%
19,Cn1cnc2cc(NCc3cccs3)ccc21,-0.349%
20,COc1ccc(C(=O)N2CCCC(C(=O)N3CCCCCC3)C2)cc1 (stereo not shown),4.8%
21,O=C(O)CCC(NC(=O)C1CCCN1C(=O)OCc1ccccc1)C(=O)O (stereo not drawn) (Cbz-Pro-Glu-OH; configuration not given here),14%
22,O=C(O)c1ccc(-c2ccc(O)c(F)c2)cc1,4.41%

row,Structure (SMILES),"hERG current change (%, negative = inhibition) at 10uM"
1,CCn1c(-c2cc(-c3ccc(OC(C)C)cc3)nc3ccccc23)n[nH]c1=S,2.71%
2,Cc1nn(C)c(Cl)c1C(=O)NCC(=O)NCc1ccccc1,5.32%
3,Cc1noc(C)c1COc1cccc(C(=O)OC(C)C(=O)Nc2c(C)n(C)n(-c3ccccc3)c2=O)c1 (stereo not shown),4.8%
4,Cc1ccccc1OCCNC(=O)CNC(=O)c1ccccc1O,-32.8%
5,O=C(Nc1nc(-c2ccccc2)nc2ccccc12)c1ccc(F)cc1,15.3%
6,C=CCNC(=O)c1onc(CSc2ccc(F)cc2)c1C(=O)NCCOC,-43%
7,Cc1[nH]c2ccccc2c1/C=N/NC(=O)c1cc(-c2ccncc2)nc2ccccc12,6.7%
8,CC1CN(C(=O)c2ccc(COc3ccc(C(C)C)cc3)o2)CC(C)O1 (stereo not shown),-25%
9,COc1cccc(NC(=O)Nc2ccc3nc(C)c(C)nc3c2)c1,-0.741%
10,CC(C)(C)OC(=O)NCC1CCC(C(=O)NC[C@H](CC(=O)O)c2ccc(Cl)cc2)CC1 (stereo partly shown),21.1%
11,Cc1onc(-c2c(F)cccc2Cl)c1C(=O)N=C(N)N1CC(C)OC(C)C1 (stereo not shown),2%
12,COc1ccc(CC(=O)NCC2CCCN(Cc3ccccc3OC)C2)cc1 (stereo not shown),10.5%
13,COc1ccc([C@H](C)NC[C@H](O)c2ccc(O)c(NC=O)c2)cc1.O=C(O)/C=C/C(=O)O,-0.554%
14,CCN1C(=O)[C@@H]2[C@@H](c3ccc(SC4CCCCC4)cc3)N3CCCC[C@@]3(C(=O)OC)[C@@H]2C1=O.O=C(O)C(F)(F)F,0.86%
15,COc1ccc(C(=O)OCC(=O)NC2CC2)cc1S(=O)(=O)Nc1ccc(C)cc1,7.75%
16,CN(C)S(=O)(=O)c1ccc(NC(=O)N2CCN(c3ccccc3)CC2)cc1,13.3%
17,Cn1c(N)c(C(=O)COC(=O)C2(c3cccc(F)c3)CCCC2)c(=O)n(C)c1=O,-12.4%
18,Brc1ccc(Nc2nc(-c3cccnc3)cs2)cc1,19.9%
19,CSc1ccc(N2CCN(CCCNC(=O)Nc3ccccc3F)CC2)cc1,-49.1%
20,Cc1ccc(NC(=O)c2cc(N3C(=O)CCC3=O)ccc2N2CCCCC2)cc1,-15.9%
21,Cc1c(C=O)c2ccccc2n1Cc1ccc([N+](=O)[O-])cc1,-78.1%
22,COc1cc2oc(=O)ccc2cc1[C@H](O)[C@@H](O)C(C)(C)O,10.1%

row,Structure (SMILES),"hERG current change (%, negative = inhibition) at 10uM"
1,Cl.O=c1cn[nH]c2ccccc12,-5.98%
2,C=CCOc1ccccc1/C=N/n1nnnc1N,-4.6%
3,Cn1nc(C(F)(F)F)c(CN2CC(C)(C)C2=O)c1N1CCOCC1,20.7%
4,CCOc1ccc(CNc2ccc(N3CCOCC3)c(C(=O)O)c2)cc1,-0.488%
5,O=C(NCc1cccs1)C(=O)NCC1OCCCN1S(=O)(=O)c1cccs1 (stereo not shown),-15.3%
6,CC(C)C(=O)c1cn(CC(=O)NCc2ccc3c(c2)OCO3)c2ccccc12,16%
7,CCc1ccccc1NC(=O)CNC1CCCCC1.[O-][Cl+3]([O-])([O-])O,8.4%
8,CC(COC(=O)c1ccccc1)(COC(=O)c1ccccc1)/[N+]([O-])=C/c1ccccc1,4.41%
9,CCOC(=O)c1cnn(-c2ccc(Cl)cc2)c1C1CCN(C(=O)OC(C)(C)C)CC1,-1.14%
10,O=C1C2CCCN2C(=O)N1CCCCN1CCN(c2ccc(F)cc2)CC1 (stereo not shown),-43.2%
11,O=C(C1CCCCC1)N1CCN(S(=O)(=O)c2cccc([N+](=O)[O-])c2)CC1,-13.1%
12,Nc1ccc(C(=O)N2CCN(S(=O)(=O)c3ccc(Cl)cc3)CC2)cc1[N+](=O)[O-],-46.1%
13,CC(C)c1nc2sc3c(NCc4ccco4)ncnc3c2c2c1COC(C)(C)C2,-1.04%
14,Clc1ccccc1-c1nc(-c2cccnc2)no1,7.94%
15,Fc1ccc(NC(=S)N2CCc3ccccc32)cc1,10.6%
16,CCCc1nnc(SCC(=O)Nc2cc(C)on2)n1CCOC,16.2%
17,O=C1C2=C(c3ccccc31)[N+](=O)C1CCCCC1N2[O-] (stereo not shown),-23.8%
18,O=C1c2ccccc2C(=O)N1CCCn1nnc(-c2ccc(N3CCOCC3)cc2)n1,-4.13%
19,COc1ccc2[nH]c3c(=O)n(Cc4ccc(C(=O)N5CCCCCC5)cc4)c(=S)[nH]c3c2c1,24.5%
